This is an account of results in the supplement of paper PMC11417369.

± gives the standard deviation of the averaged measurements. The list shows a part of the results.

For this experiment, the system named is PfAP2-I AP2 domain 3 (GST-tagged). The experiment can be described thus: gcPBM binding intensity (ln(normalized median fluorescence intensity)); higher = stronger DNA binding. Put shortly:
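Alexa488 anti-GST antibody, scanned at 488 nm, detected GST-tagged P. falciparum DNA-binding domains that had been expressed in E. coli and incubated for 1 h on an Agilent 4 × 180k array. The array carried primer-extended double-stranded 36-bp intergenic genomic probes and negative controls. Binding intensity is the highest Masliner-normalised natural-log median intensity across replicate spots of either orientation of each probe.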
On to “ATAAATTTTTTATGAACACACAAATACACCCACTCA [CACACA_site5465]”, for which the “gcPBM binding intensity (ln)” value was 8.8 ± 0.35.

Consider “TGTATATATTTTAATAGTACTCATATATATATATAT [XGTACX_site7216]”, for which the “gcPBM binding intensity (ln)” value is 9.23 ± 0.085. The figure for “CTTATAAAAAAAATTGCACACATATTATACAGGACG [CACACA_site8133]” is 8.48 ± 0.57; for “TTTACATTTATGTGCACACATTCCATTTGAAAGTAA [CACACA_site1953]” it is 10.3 ± 0.23. The same measure for “AATATTTTTTTTTAAACATGCATATTTGCATTACCC [TGCATGCA_site437]”: 8.15 ± 0.82; for “TTTTTTTTAATGAGAAGTACGGTCTTTCAATGTCTT [XGTACX_site6773]”: 7.71 ± 0.34; for “ATTGTGTTGACGGGTGACCCTTCCAGAGAAATAGAA [CACACA_negctrl_site1362]”: 7.66 ± 0.7. The same measure for “TAAAAATTAAAACTGGGTACAAATTTATAGATAGCC [XGTACX_site8075]”: 7.86 ± 0.52. In the case of “CATTAACAAATAAATGCACACATATATATAAATAAT [CACACA_site7892]”, the “gcPBM binding intensity (ln)” value was 9.51 ± 0.35. The figure for “AATTTATTAGATAGATGTACATTTTAATAAAAGTAG [XGTACX_site6819]” is 7.83 ± 0.43; for “TCCCCTTAATTTAAAACACACAAACAAATAAGTTAG [CACACA_site5973]” it is 7.71 ± 0.44; for “ATATATACAAAGGATTAACACACATATTATTATATA [CACACA_site8563]” it is 7.64 ± 0.56. The same measure for “TTCGTTATAATTGAATTTACAATATGCTTTATAATG [XGTACX_negctrl_site238]”: 7.58 ± 0.45; for “TAAATTACATGAAATTGTACATGAATATTAAATATA [XGTACX_site3909]”: 7.42 ± 0.4; for “GTGTACAGTTTTTGCACACATATAAATAAAAAAAAG [CACACA_site3599]”: 9.365 ± 0.078. The same measure for “AAAATATTTATATTTACACACACATAATACATATAT [CACACA_site32]”: 7.71 ± 0.57; for “ATATATATGAATACATGTACGTATTTGTCTATGTAT [XGTACX_site8306]”: 7.87 ± 0.47. In the case of “AATAAAGGAAATAAATAATTTATTTTGTAAAATATG [CACACA_negctrl_site97]”, the “gcPBM binding intensity (ln)” value turned out to be 7.6 ± 0.58. The figure for “CAATGTTAACATATTACACACATATGTATTTATAAT [CACACA_site5512]” is 7.95 ± 0.37; for “TAATATCATTTATGGGGTACCTCCTATTCTTATTTA [XGTACX_site1839]” it is 7.71 ± 0.59; for “CGAACTGCACTTTTTAGTACTTAATAATTATTTTTT [XGTACX_site2446]” it is 10 ± 0.59.

For the sequence “TCATATGTTAAATGATGTACATTTAATATAAATAAA [XGTACX_site900]”, the “gcPBM binding intensity (ln)” value was found to be 7.5 ± 0.23. The figure for “AAAAAAAACATCCTCACACATATATATATATATATA [CACACA_site5166]” is 9.37 ± 0.3. The figure for “AAATAAAATTATAATACATGCATACATACATATATA [TGCATGCA_site69]” is 7.9 ± 0.54.
